Measured values: PubChem BioAssay AID624296 (National Center for Advancing Translational Sciences (NCATS), 2012)
Screen size: about 350,000 compounds; about 9,900 (2.8%) were called active. The shares of active, inactive and inconclusive entries below differ from those in the screen. Calls come from the whole dose curve; as a rule, active = well fitted activation curve with a large enough effect; inconclusive = small, poorly fitted or top-dose-only effect; inactive = no such curve, though single readings can be large or run the other way. No potency is given beside an inconclusive call; the fits are too rough.
Potency is the fitted concentration of half-maximal effect; tags give direction and shape of the fitted curve.

Assay: A quantitative high throughput screen for small molecules that induce DNA re-replication in MCF 10a normal breast cells. For activity, positive = re-replication: % of control where 0% means no effect. Note: nearly all actives have a fitted effect of over 50% in size.
Conditions: MCF 10A DNA re-replication, Hoechst nuclear intensity, 48 h; activity, positive = re-replication: at 46.1 µM (top of the series)
In the case of `Cc1ccc(S(=O)(=O)N(C)CC(=O)NCCCn2ccnc2)cc1`, the “activity, positive = re-replication” value is reported as inactive: 11.8%. With `COc1ccc([C@@H]2[C@@H]3C(=O)N(C(C)(C)C)C(=O)[C@@H]3[C@]3(C)C(=O)N(c4ccc(C)cc4)C(=O)N23)cc1` the Potency was inconclusive [activator, single point]. In the case of `Cc1nc(N)nc(N(C)c2ccccc2)c1Br`, the Potency is reported as inconclusive [activator, single point]. In the case of `Cc1ccc(O)c(C2=Nc3ccccc3N=C(c3cccs3)C2)c1`, the Potency is reported as active: 20.6 µM. In the case of `CCC(=O)N1CCN(c2ccc(Cl)cc2NC(=O)c2ccc([N+](=O)[O-])o2)CC1`, the Potency is reported as inconclusive [activator, single point]. For `CSCCC(NC(=O)COc1ccccc1)C(=O)N1CCN(c2cccc(C(F)(F)F)c2)CC1` (centres undefined), the Potency was inconclusive [activator, full curve, poor fit]. In the case of `COc1ccccc1C(=O)Nc1ccc(C)c(S(=O)(=O)N2CCCCC2)c1`, the Potency is reported as inconclusive [activator, partial curve, poor fit]. With `COC1CCCCC1Nc1cc(C)ccc1C` (centres undefined) the Potency was inconclusive [activator, single point]. With `CC(=O)c1ccc(NC(=O)Nc2ccc(Br)cc2C)cc1` the Potency was inconclusive [activator, partial curve, poor fit]. For `O=C(COC(=O)c1cccc(NC(=O)c2ccco2)c1)c1ccc(Br)cc1`, the Potency was inconclusive [activator, partial curve, poor fit]. With `COc1ccc(CCC(=O)NCCS(=O)(=O)N2CCN(c3ccc(OC)cc3)CC2)cc1` the “activity, positive = re-replication” value was inactive: 0.849%. With `CCc1nnc(NC(=O)c2ccc(S(=O)(=O)N(C)c3ccccc3)cc2)o1` the “activity, positive = re-replication” value was inactive: 6.66%. In the case of `COCCN1CCN(C(=O)c2cc(COc3ccc(F)c(F)c3)on2)CC1`, the “activity, positive = re-replication” value is reported as inactive: 0.112%. With `CC1Oc2ccccc2C=C1/C=C1/SC(N2CCOCC2)=NC1=O` (centres undefined) the Potency was inconclusive [activator, single point]. For `CCOC(=O)c1sc(-c2ccccc2)cc1NC(=O)Nc1ccccc1`, the Potency was inconclusive [activator, single point]. In the case of `O=C(CN1CSCC1=O)N1CCN(S(=O)(=O)c2ccc(Cl)cc2)CC1`, the “activity, positive = re-replication” value is reported as inactive: 1.02%. With `Cn1cccc1C(=O)NCC(c1ccc(F)cc1)N1CCOCC1` (centres undefined) the “activity, positive = re-replication” value was inactive: 28.9%. In the case of `O=C(NCc1nc(-c2ccc(Cl)cc2)no1)c1ccc2c(c1)OCO2`, the Potency is reported as inconclusive [activator, partial curve, poor fit]. For `O=C(CN(Cc1ccc(F)cc1)C(=O)CCC(=O)Nc1nccs1)NCc1ccccc1`, the “activity, positive = re-replication” value was inactive: 0.279%. In the case of `COC(=O)COc1cccc2c(=O)n(CC(=O)NCc3ccc(F)cc3)ccc12`, the Potency is reported as active: 10.3 µM. With `O=C(Nc1nnc(S(=O)(=O)N2CCOCC2)s1)c1ccccc1F` the Potency was inconclusive [activator, single point]. In the case of `Nc1ccc(-c2nc3c(Cl)c(N)ccc3[nH]2)cc1`, the Potency is reported as inconclusive [activator, partial curve, poor fit]. In the case of `Cc1cccc(N2CCN(S(=O)(=O)c3cc(-c4cc(C)no4)ccc3C)CC2C)c1` (centres undefined), the Potency is reported as active: 3.26 µM. For `COc1cccc(OC)c1C(=O)N1CCN(c2c(Cc3ccccc3)c(C)nc3ncnn23)CC1`, the Potency was inconclusive [activator, partial curve, poor fit]. With `O=C(c1cccs1)c1ccccc1Cc1cccs1` the “activity, positive = re-replication” value was inactive: -1.44%. In the case of `Cc1ccc2nc(NC(=O)/C=C/c3ccc4c(c3)OCO4)sc2c1`, the Potency is reported as inconclusive [activator, single point]. With `O=S(=O)(c1ccc2nc(-c3ccco3)c(-c3ccco3)nc2c1)N1CCOCC1` the Potency was inconclusive [activator, partial curve]. With `COCCCn1c(Cc2csc(Nc3cccc(Cl)c3)n2)nnc1SCC(=O)OC` the Potency was inconclusive [activator, partial curve, poor fit]. In the case of `CC(=O)Nc1ccc(SCC(=O)c2cc(C)n(Cc3cccs3)c2C)cc1`, the Potency is reported as inconclusive [activator, single point]. For `CCOc1ccccc1C(=O)NC1CCN(Cc2ccccc2)CC1`, the “activity, positive = re-replication” value was inactive: 1.49%. In the case of `O=[N+]([O-])c1ccc(OCc2n[nH]c(=S)n2-c2ccccc2)cc1`, the Potency is reported as inconclusive [activator, partial curve, poor fit]. In the case of `CCOC(=O)c1ccccc1NC(=O)Cc1ccc(S(=O)(=O)N2CCCC2)s1`, the Potency is reported as inconclusive [activator, partial curve, poor fit]. For `Cn1c(SCC(=O)N2CCCc3ccccc32)nnc1-c1cccs1`, the “activity, positive = re-replication” value was inactive: 0.0281%. For `Cc1noc(/C=C/N(C)C)c1S(=O)(=O)NC1CCCCC1`, the Potency was inconclusive [activator, single point]. In the case of `COc1ccc(COC(=O)C2=C(C)NC(=O)NC2c2cccc(Br)c2)cc1` (centres undefined), the Potency is reported as inconclusive [activator, single point]. With `CCCN(C(=O)c1nc2nc(C)cc(C)n2n1)c1c(N)n(Cc2ccccc2)c(=O)[nH]c1=O` the Potency was inconclusive [activator, single point]. In the case of `CC(C)Cc1nc(N2CCOCC2)c(C#N)c2c1CCC2`, the Potency is reported as inconclusive [activator, single point]. For `Cc1onc(-c2ccccc2)c1C(=O)c1ccccc1`, the Potency was inconclusive [activator, partial curve, poor fit]. With `Fc1ccc(CSc2ncnc3scc(-c4ccccc4)c23)cc1` the “activity, positive = re-replication” value was inactive: 21.8%. For `Cc1nc(N)nc(N)c1/C=C/C(C)(C)c1ccc(Cl)cc1`, the Potency was inconclusive [activator, single point]. For `NC(Cc1c[nH]c2ccc(OCc3ccccc3)cc12)C(=O)O` (centres undefined), the Potency was inconclusive [activator, single point]. With `O=C(c1ccc(C23CC4CC(CC(C4)C2)C3)o1)N1CCOCC1` the “activity, positive = re-replication” value was inactive: -7.99%. With `COc1cc(S(=O)(=O)N2CCCCC2)ccc1NC(=O)c1ccccc1Cl` the “activity, positive = re-replication” value was inactive: 1.55%. For `CCOc1ccccc1-c1cc(C(=O)Nc2ccc(C(=O)O)cc2)c2ccccc2n1`, the Potency was inconclusive [activator, partial curve, poor fit].
